Test results: the supplement of paper PMC4166925
± gives the standard deviation of the averaged measurements. Over roughly 33,000 sequences, “E-score (dimensionless, -0.5 to 0.5)” has its median near -0.049; the highest 2% begin near 0.37. This is one part of the list.

Test system: T1, PmTbr T-box DNA-binding domain (GST fusion)
T1 sequence: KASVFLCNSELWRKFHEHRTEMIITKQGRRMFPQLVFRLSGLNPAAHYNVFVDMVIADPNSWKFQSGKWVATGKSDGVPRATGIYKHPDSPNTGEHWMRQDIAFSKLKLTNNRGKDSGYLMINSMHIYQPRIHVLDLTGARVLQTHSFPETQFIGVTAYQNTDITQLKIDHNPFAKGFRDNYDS
Test: PBM E-score of 8-mer (E-score (dimensionless, -0.5 to 0.5)); Tbr is Tbrain of the sea star Patiria miniata (Pm) or the sea urchin Strongylocentrotus purpuratus (Sp); higher = stronger binding preference; most listed sequences are background and not binding sites
Settings: the construct has about 5 more residues each side
Summary of the method: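 Each ungapped 8-mer received an enrichment E-score from the Universal PBM Analysis Suite, averaged over duplicate arrays. The proteins were Tbr T-box DNA-binding domains, covering the whole T-box plus about five flanking residues, fused to GST and expressed in BL21 E. coli at 20 °C before glutathione affinity purification. Universal Agilent oligonucleotide arrays were made double-stranded by primer extension and incubated with 200 nM protein in PBS (pH 7.5). The arrays were then scanned and quantified, and every 8-mer was scored from probe intensities.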

Sequence	PBM E-score of 8-mer
GAATTGGC	0.00583 ± 0.0077
ATAAACAT	-0.0888 ± 0.037
GTATGCAA	-0.141 ± 0.029
AACCGGTA	0.0232 ± 0.018
ACCGTGTA	0.0543 ± 0.064
CAATCCAC	-0.0294 ± 0.022
TAAGCTGA	-0.126 ± 0.0068
CTGAAGAA	-0.165 ± 0.065
CTCACCAC	0.209 ± 0.054
TAACCTAA	0.0219 ± 0.063
TCATATAA	-0.11 ± 0.038
ATCGAATA	-0.131 ± 0.025
AGCTGCCT	0.0585 ± 0.059
TAAATTCA	-0.1 ± 0.031
CCACCAGA	-0.0155 ± 0.03
GTACATCA	-0.0746 ± 0.021
CTCTAGAA	-0.125 ± 0.028
GGGAGAGA	0.0403 ± 0.0062
CCTTGGGC	-0.035 ± 0.01
AGCTTTAG	-0.11 ± 0.083
ACGGTCCG	0.0322 ± 0.021
GGGCACAA	-0.0969 ± 0.053

Sequence	PBM E-score of 8-mer
GTCGAAGA	-0.219 ± 0.02
CGACGTAC	-0.051 ± 0.087
CGTAGACG	-0.21 ± 0.078
GCGTGTAA	0.0292 ± 0.033
CGCCCTAC	-0.103 ± 0.061
AACAACTC	0.138 ± 0.0062
CCCATTAG	-0.158 ± 0.063
ATATGAGA	-0.161 ± 0.0032
ACTAATTG	0.0318 ± 0.075
GAACGTGC	0.155 ± 0.023
ACGTCGAG	0.0805 ± 0.015
GAGAGTGC	0.235 ± 0.059
CGTGCAAA	0.11 ± 0.0028
GGCAAACA	0.0878 ± 0.028
CCAGATCC	-0.00069 ± 0.11
AACCGACT	-0.0591 ± 0.054
CGACTGCA	-0.204 ± 0.15
AACAAACC	-0.0345 ± 0.066
AGTGACTA	0.115 ± 0.011
ACAGATGC	0.0482 ± 0.0091
CTCAAGAC	-0.141 ± 0.045
ACCTATAG	-0.0514 ± 0.14

Sequence	PBM E-score of 8-mer
AGGCCATG	-0.279 ± 0.0077
GCAAAAAC	0.103 ± 0.0046
CCTCATAC	-0.11463 ± 9.9e-05
TCAGTAAA	-0.175 ± 0.076
CTCACCCC	0.295 ± 0.021
CGCCGCGA	0.141 ± 0.049
GTTAACTA	0.131 ± 0.037
CGTCCCAA	-0.169 ± 0.0075
CATCTCCC	-0.0811 ± 0.059
ATGAAAAT	-0.027 ± 0.027
ATGGCCAC	-0.148 ± 0.062
TAAGAGGA	-0.184 ± 0.03
CAGTTCAG	-0.242 ± 0.024
AAAATTAC	0.0695 ± 0.1
AAGGCGAG	0.293 ± 0.031
GTTGAAAA	0.102 ± 0.13
CCGTCTAA	-0.215 ± 0.069
CTGTAAGA	0.00129 ± 0.065
AACGGACT	0.123 ± 0.061
ACGGCACA	7.5e-05 ± 0.098
GTTTATTA	-0.1957 ± 0.00052
ACATCCAA	0.0673 ± 0.015

Sequence	PBM E-score of 8-mer
GTCCTCCA	-0.177 ± 0.035
TAATAGTA	-0.151 ± 0.03
ATCGGAAG	0.0222 ± 0.087
CCTAGGAG	0.0157 ± 0.015
GGGCGGAA	-0.152 ± 0.023
CCGATCAA	0.0729 ± 0.051
GGATGAAC	-0.097 ± 0.046
GTCGGCCA	-0.0588 ± 0.0088
CCCTAAAA	0.0409 ± 0.091
ACCAAGCG	0.09091 ± 0.00011
TACATGTA	-0.28 ± 0.064
CCCCCCAC	-0.302 ± 0.056
CCAGACTA	-0.282 ± 0.089
CCAATTAG	0.0274 ± 0.061
ATGGGACC	-0.24 ± 0.079
CTCGGGAA	-0.092 ± 0.018
CTAGCGCA	-0.0621 ± 0.011
AGTAACAC	0.393 ± 0.025
CAGAGCTA	-0.349 ± 0.055
AAAAGATT	-0.136 ± 0.0087
CGCACAAG	0.04661 ± 0.00035
CACATTTC	0.3486 ± 0.0015

Sequence	PBM E-score of 8-mer
CAATACAA	-0.215 ± 0.067
GGTGCCTA	0.0798 ± 0.0059
CATAACTA	-0.0882 ± 0.002
GAGGAGAA	-0.158 ± 0.088
CAGGGAGC	-0.152 ± 0.019
CTCAGTGC	-0.028 ± 0.02
CGGGTACG	-0.125 ± 0.017
CTTAGCCA	-0.0235 ± 0.029
ACGAAGAG	-0.0865 ± 0.021
AGAGCTAA	-0.0863 ± 0.067
CCGGATGC	-0.0416 ± 0.028
AAGGAGAA	-0.289 ± 0.11
ATACTCTG	-0.0952 ± 0.035
ATAGTTGA	-0.0889 ± 0.077
ACCCAACA	0.19 ± 0.061
CTTGATTC	-0.158 ± 0.019
ATCTAATC	-0.133 ± 0.05
CTAGTAAG	-0.0596 ± 0.04
ACAGAAGG	0.131 ± 0.03
CTTGAGTA	-0.199 ± 0.047
ACGCTACT	0.0278 ± 0.048
ATTTATAA	0.0352 ± 0.066
